Experimental data reported in article PMC9911399, “Two distinct binding modes provide the RNA-binding protein RbFox with extraordinary sequence specificity”.
Residue numbers refer to the chain shown, from its start. This is one part of the list.

T1: RBFOX1 RRM (Homo sapiens, UniProt Q9NWB1 109-208)
T1 sequence: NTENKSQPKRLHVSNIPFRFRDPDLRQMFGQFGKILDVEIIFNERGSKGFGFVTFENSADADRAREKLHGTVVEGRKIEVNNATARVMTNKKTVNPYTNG

B1: AAGUACC (DNA:RNA)
RNA: GGGAGACCGGAAUUCAGAUUGUCCAAGUACCUUAAAUCCCGUCGUAGCCACCA
DNA 1: CAATCTGAATTCCGGTCTCCC
DNA 2: TGGTGGCTACGACGGGATT
B2: CGAUGAA (DNA:RNA)
RNA: B1 RNA with A25C, A26G, G27A, A29G, C30A, C31A
DNA 1: CAATCTGAATTCCGGTCTCCC
DNA 2: TGGTGGCTACGACGGGATT
B3: AUUCUAA (DNA:RNA)
RNA: B1 RNA with A26U, G27U, U28C, A29U, C30A, C31A
DNA 1: CAATCTGAATTCCGGTCTCCC
DNA 2: TGGTGGCTACGACGGGATT
B4: GUGAAGU (DNA:RNA)
RNA: B1 RNA with A25G, A26U, U28A, C30G, C31U
DNA 1: CAATCTGAATTCCGGTCTCCC
DNA 2: TGGTGGCTACGACGGGATT
B5: UGCUAGA (DNA:RNA)
RNA: B1 RNA with A25U, A26G, G27C, C30G, C31A
DNA 1: CAATCTGAATTCCGGTCTCCC
DNA 2: TGGTGGCTACGACGGGATT
B6: CUGUAUG (DNA:RNA)
RNA: B1 RNA with A25C, A26U, C30U, C31G
DNA 1: CAATCTGAATTCCGGTCTCCC
DNA 2: TGGTGGCTACGACGGGATT
B7: GCUACUG (DNA:RNA)
RNA: GGGAGACCGGAAUUCAGAUUGUCCGCUACUGUUAAAUCCCGUCGUAGCCACCA
DNA 1: CAATCTGAATTCCGGTCTCCC
DNA 2: TGGTGGCTACGACGGGATT
B8: UUUAGAC (DNA:RNA)
RNA: B7 RNA with G25U, C26U, C29G, U30A, G31C
DNA 1: CAATCTGAATTCCGGTCTCCC
DNA 2: TGGTGGCTACGACGGGATT
B9: UGAGAGG (DNA:RNA)
RNA: B1 RNA with A25U, A26G, G27A, U28G, C30G, C31G
DNA 1: CAATCTGAATTCCGGTCTCCC
DNA 2: TGGTGGCTACGACGGGATT
B10: AAUCGCC (DNA:RNA)
RNA: B1 RNA with G27U, U28C, A29G
DNA 1: CAATCTGAATTCCGGTCTCCC
DNA 2: TGGTGGCTACGACGGGATT
B11: GCCUAAC (DNA:RNA)
RNA: B1 RNA with A25G, A26C, G27C, C30A
DNA 1: CAATCTGAATTCCGGTCTCCC
DNA 2: TGGTGGCTACGACGGGATT
B12: AGACCAU (DNA:RNA)
RNA: B1 RNA with A26G, G27A, U28C, A29C, C30A, C31U
DNA 1: CAATCTGAATTCCGGTCTCCC
DNA 2: TGGTGGCTACGACGGGATT
B13: AGGUGCU (DNA:RNA)
RNA: B1 RNA with A26G, A29G, C31U
DNA 1: CAATCTGAATTCCGGTCTCCC
DNA 2: TGGTGGCTACGACGGGATT
B14: AUUGAUU (DNA:RNA)
RNA: B1 RNA with A26U, G27U, U28G, C30U, C31U
DNA 1: CAATCTGAATTCCGGTCTCCC
DNA 2: TGGTGGCTACGACGGGATT
B15: CCGCCAU (DNA:RNA)
RNA: B7 RNA with G25C, U27G, A28C, U30A, G31U
DNA 1: CAATCTGAATTCCGGTCTCCC
DNA 2: TGGTGGCTACGACGGGATT
B16: UCUUAAA (DNA:RNA)
RNA: B1 RNA with A25U, A26C, G27U, C30A, C31A
DNA 1: CAATCTGAATTCCGGTCTCCC
DNA 2: TGGTGGCTACGACGGGATT
B17: GGAUUUU (DNA:RNA)
RNA: B7 RNA with C26G, U27A, A28U, C29U, G31U
DNA 1: CAATCTGAATTCCGGTCTCCC
DNA 2: TGGTGGCTACGACGGGATT
B18: CCCCUAG (DNA:RNA)
RNA: B7 RNA with G25C, U27C, A28C, C29U, U30A
DNA 1: CAATCTGAATTCCGGTCTCCC
DNA 2: TGGTGGCTACGACGGGATT
B19: ACAUAUC (DNA:RNA)
RNA: B1 RNA with A26C, G27A, C30U
DNA 1: CAATCTGAATTCCGGTCTCCC
DNA 2: TGGTGGCTACGACGGGATT
B20: GGAGUUU (DNA:RNA)
RNA: B7 RNA with C26G, U27A, A28G, C29U, G31U
DNA 1: CAATCTGAATTCCGGTCTCCC
DNA 2: TGGTGGCTACGACGGGATT
B21: ACCAGAG (DNA:RNA)
RNA: B7 RNA with G25A, U27C, C29G, U30A
DNA 1: CAATCTGAATTCCGGTCTCCC
DNA 2: TGGTGGCTACGACGGGATT
B22: UGGGCGG (DNA:RNA)
RNA: B7 RNA with G25U, C26G, U27G, A28G, U30G
DNA 1: CAATCTGAATTCCGGTCTCCC
DNA 2: TGGTGGCTACGACGGGATT
B23: CCGCGUC (DNA:RNA)
RNA: B1 RNA with A25C, A26C, U28C, A29G, C30U
DNA 1: CAATCTGAATTCCGGTCTCCC
DNA 2: TGGTGGCTACGACGGGATT
B24: ACAACAG (DNA:RNA)
RNA: B7 RNA with G25A, U27A, U30A
DNA 1: CAATCTGAATTCCGGTCTCCC
DNA 2: TGGTGGCTACGACGGGATT
B25: AUUAUAG (DNA:RNA)
RNA: B7 RNA with G25A, C26U, C29U, U30A
DNA 1: CAATCTGAATTCCGGTCTCCC
DNA 2: TGGTGGCTACGACGGGATT
B26: UUGGAUG (DNA:RNA)
RNA: B1 RNA with A25U, A26U, U28G, C30U, C31G
DNA 1: CAATCTGAATTCCGGTCTCCC
DNA 2: TGGTGGCTACGACGGGATT
B27: UCGAACU (DNA:RNA)
RNA: B1 RNA with A25U, A26C, U28A, C31U
DNA 1: CAATCTGAATTCCGGTCTCCC
DNA 2: TGGTGGCTACGACGGGATT
B28: AGACGUC (DNA:RNA)
RNA: B1 RNA with A26G, G27A, U28C, A29G, C30U
DNA 1: CAATCTGAATTCCGGTCTCCC
DNA 2: TGGTGGCTACGACGGGATT
B29: AGCUGGA (DNA:RNA)
RNA: B1 RNA with A26G, G27C, A29G, C30G, C31A
DNA 1: CAATCTGAATTCCGGTCTCCC
DNA 2: TGGTGGCTACGACGGGATT
B30: CGUAUUG (DNA:RNA)
RNA: B7 RNA with G25C, C26G, C29U
DNA 1: CAATCTGAATTCCGGTCTCCC
DNA 2: TGGTGGCTACGACGGGATT
B31: UCCGGUG (DNA:RNA)
RNA: B7 RNA with G25U, U27C, A28G, C29G
DNA 1: CAATCTGAATTCCGGTCTCCC
DNA 2: TGGTGGCTACGACGGGATT

Target: T1, RBFOX1 RRM
Assay: EMSA; HiTS-Eq, 1 nM pool, 10 min; buffer printed only for the single-RNA assays: 10 mM Tris pH 7.5, 150 mM NaCl, 3.4 mM EDTA, 0.001% NP-40, 30 C
Conditions: tags: His6 N-terminal (pET28a); label: 5' 32P
How it was run: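 Purified RbFox RRM, wild type or mutant, was incubated for 10 min in 50 µL with 1 nM of a 5′-radiolabelled RNA pool carrying 7 randomized nucleotides, whose flanks were annealed to DNA oligonucleotides, over a series of increasing protein concentrations. Unbound RNA was resolved on 8% native PAGE, cut out, reverse-transcribed, barcoded by PCR and sequenced on an Illumina HiSeq 2500. Relative association constants were derived from changes in read counts for each RNA species versus the control reaction and normalised to the cognate motif.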

For B1, which binding signal is on record?
Its binding signal is 0.00279 KA relative to UGCAUGU.

Which binding signal does the source give for B2 here?
Its binding signal is 0.0112 KA relative to UGCAUGU.

For B3, which binding signal is on record?
Its binding signal is 0.00399 KA relative to UGCAUGU.

For B4, which binding signal is on record?
Its binding signal is 0.0152 KA relative to UGCAUGU.

How did the binding signal turn out when B5 was run?
Its binding signal is 0.0242 KA relative to UGCAUGU.

How did the binding signal turn out when B6 was run?
Its binding signal is 0.0231 KA relative to UGCAUGU.

With B7 as the binder, how does the binding signal read?
Its binding signal is 0.0197 KA relative to UGCAUGU.

With B8 as the binder, how does the binding signal read?
Its binding signal is 0.0117 KA relative to UGCAUGU.

With B9 as the binder, how does the binding signal read?
The binding signal was 0.0138 KA relative to UGCAUGU.

B10 was tested. Which binding signal did it give?
The binding signal was 0.004 KA relative to UGCAUGU.

Which binding signal does the source give for B11 here?
The binding signal was 0.00414 KA relative to UGCAUGU.

How did the binding signal turn out when B12 was run?
Its binding signal is 0.00117 KA relative to UGCAUGU.

Which binding signal does the source give for B13 here?
The binding signal was 0.0168 KA relative to UGCAUGU.

Which binding signal does the source give for B14 here?
Its binding signal is 0.00786 KA relative to UGCAUGU.

For B15, which binding signal is on record?
The binding signal was 0.00241 KA relative to UGCAUGU.

With B16 as the binder, how does the binding signal read?
The binding signal was 0.00223 KA relative to UGCAUGU.

B17 was tested. Which binding signal did it give?
Its binding signal is 0.0184 KA relative to UGCAUGU.

For B18, which binding signal is on record?
Its binding signal is 0.00363 KA relative to UGCAUGU.

B19 was tested. Which binding signal did it give?
The binding signal was 0.000516 KA relative to UGCAUGU.

With B20 as the binder, how does the binding signal read?
Its binding signal is 0.0247 KA relative to UGCAUGU.

B21 was tested. Which binding signal did it give?
Its binding signal is 0.00454 KA relative to UGCAUGU.

For B22, which binding signal is on record?
Its binding signal is 0.0408 KA relative to UGCAUGU.

B23 was tested. Which binding signal did it give?
The binding signal was 0.0124 KA relative to UGCAUGU.

For B24, which binding signal is on record?
Its binding signal is 0.00147 KA relative to UGCAUGU.

Which binding signal does the source give for B25 here?
Its binding signal is 0.00501 KA relative to UGCAUGU.

How did the binding signal turn out when B26 was run?
The binding signal was 0.0302 KA relative to UGCAUGU.

Which binding signal does the source give for B27 here?
The binding signal was 0.00753 KA relative to UGCAUGU.

Which binding signal does the source give for B28 here?
Its binding signal is 0.0085 KA relative to UGCAUGU.

B29 was tested. Which binding signal did it give?
The binding signal was 0.00412 KA relative to UGCAUGU.

How did the binding signal turn out when B30 was run?
Its binding signal is 0.0121 KA relative to UGCAUGU.

B31 was tested. Which binding signal did it give?
The binding signal was 0.00817 KA relative to UGCAUGU.
